# The full ranking holds about 33,000 sequences; the median of “E-score (-0.5 to 0.5)” is about -0.01, and the highest 2% start at about 0.26. The list shows a part of the results.
# Molecular target: Ste12 (UniProt P13574)
# Test: PBM E-score (8-mer binding enrichment) (E-score (-0.5 to 0.5)); higher = stronger / more preferred TF binding; most listed sequences are background and not binding sites
# Settings: protein concentration: 200 nM; construct: GST-DNA-binding domain
# Protocol: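 Universal 'all 10-mer' protein binding microarrays (Agilent AMADID 015681) probed with GST-tagged S. cerevisiae TFs (full-length or DBD) made by in vitro transcription/translation (PURExpress), about 100-200 nM. Bound TF was detected with fluorescent anti-GST. Each ungapped 8-mer (which stands for itself and its reverse complement) is scored by the PBM enrichment score (E-score), a modified Wilcoxon-Mann-Whitney statistic from -0.5 to +0.5, computed with the Universal PBM Analysis Suite. Scale: above 0.35 generally sequence-specific binding.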
row,Sequence,PBM E-score
1,AGATGGAC,0.0057
2,ATTCGGTA,0.148
3,GACTCATC,-0.139
4,CAGGTGCC,-0.0927
5,ACGCACGG,-0.0974
6,CAACGCTA,-0.141
7,CTTTGGGC,-0.0925
8,CGCAACCA,0.0423
9,AATGCGCT,-0.0615
10,ACGAATGG,0.104
11,AGTTGACC,-0.00451
12,CCAGAGAC,-0.0447
13,GATTTCTA,0.197
14,CATTGCAG,0.0295
15,CGACGGTA,-0.00601
16,ATAGCTAG,0.00107
17,CGAGAGGA,0.0361
18,GTCAAGGA,-0.193
19,GCTAACCC,-0.192
20,CCCAGCAA,0.0734
21,GGTCACTA,0.0189
22,GTTGGTGA,0.0365
23,ATTTGAGG,0.0517
24,CATATGGC,-0.0838
25,ACATGAAA,0.283

row,Sequence,PBM E-score
1,CAGATGGC,0.0115
2,CGGGACAA,0.115
3,AATTACAT,0.0508
4,GGTCTACA,-0.17
5,AAAGCTCG,-0.0769
6,GTAAATGA,0.105
7,AACGCAAC,0.103
8,ACTAATAT,0.288
9,ATCGGTCG,0.00241
10,ATTCGGAC,0.158
11,GGCACCAA,0.134
12,GATGTAGA,0.0935
13,AGCCAAAG,-0.076
14,TCTCGGAA,0.0872
15,AATTAAGG,0.0961
16,CATTCGAG,-0.0513
17,CGTGCAGA,0.0508
18,CCGTGTGA,0.0489
19,TGCGACCA,0.196
20,GGCTCCGA,0.0554
21,AAATGTGC,0.135
22,AAGAACCA,0.102
23,AATACGCT,-0.059
24,AATTCAGT,0.11
25,CAGGGAAC,-0.0428

row,Sequence,PBM E-score
1,TAAACTAA,0.148
2,CGAAGAAA,0.195
3,AGTGATCC,-0.115
4,CATAATTC,0.0847
5,ACGAGTCA,-0.217
6,AAATGTAC,0.137
7,CGTCTTCA,0.0887
8,ACGGGTGA,-0.0108
9,GCCCACGC,-0.208
10,CCTCTCCA,-0.27
11,CAGAATGC,-0.0398
12,AGCCGGTC,-0.208
13,GACGACTA,-0.309
14,ACACTATC,-0.0353
15,TCACACCA,0.0689
16,GCTGTTTA,0.14
17,GATCCACA,-0.0832
18,AAATTCCG,0.0548
19,TGCCGGAA,0.127
20,CCGTGGTC,-0.0895
21,GGAAGCCA,-0.234
22,CCGCACCA,0.0349
23,CCGAGCAA,-0.0609
24,CAGATAGA,0.02
25,GATATGCC,-0.151

row,Sequence,PBM E-score
1,CGAGAACA,-0.00474
2,CGTAGTGC,-0.235
3,CCAAGAGC,-0.0114
4,ATAGGCTC,0.0469
5,CCGAAACG,0.152
6,CCCCAGTA,-0.151
7,GTCTTAAC,-0.0934
8,CAATTTAC,0.162
9,CCGGGAGA,0.00169
10,CGGCGGAC,0.0594
11,GGGAAGCA,-0.0502
12,CGCCAGCC,0.113
13,ACACTGGC,-0.0123
14,ACGCCCCA,0.239
15,CTTCTTGC,0.0552
16,CGCGGCCG,-0.0485
17,GTGCTTCA,0.0585
18,ACAGTTCC,0.155
19,AATGTACG,-0.0878
20,AAGACAAT,0.189
21,CCTTCTAC,-0.123
22,AGTATAGA,0.0332
23,CAAAAAAC,0.298
24,GACAAACC,0.0318
25,ACAATAAG,0.0961

row,Sequence,PBM E-score
1,ATCTCGGC,-0.117
2,GCCCATTA,-0.0859
3,AATGCCCA,-0.0978
4,GCAACTGC,-0.0551
5,CCAGAGAA,-0.0241
6,ACTTGGGG,0.143
7,CGTTCCAG,0.0196
8,TACAGAGA,-0.0888
9,CACCCGGG,-0.0473
10,CCAGAAAG,0.0754
11,AAGGCAGC,-0.105
12,ACATATTG,0.0438
13,TACGAAGA,-0.0985
14,AGCTTACT,-0.142
15,CGTCAACA,-0.096
16,AGCTTAGA,0.00955
17,AGGTGATA,0.0763
18,CAAGAGTG,0.00953
19,ACCCAAAG,-0.0486
20,GTGTAGCA,-0.0978
21,CCTGCTTC,-0.104
22,CATATGCA,0.00871
23,GGAAGGCC,-0.0691
24,GTGCAAAC,0.00957
25,CGGGAGCC,-0.031

row,Sequence,PBM E-score
1,CCTGTCCG,-0.117
2,ATCGACTG,-0.0465
3,TATTTACA,0.101
4,CTCCCCCC,-0.249
5,AGCTCTTC,-0.136
6,GAAGTCAC,-0.104
7,CTCTCAAG,-0.0939
8,ATTGTGCA,-0.0612
9,CATAATGA,0.0657
10,GGGCCCGA,-0.00104
11,ATTCGGAG,-0.0606
12,CCTTGTAG,-0.135
13,CGATGGTC,-0.166
14,ATCAATCG,0.0564
15,AGGCACCC,-0.109
16,CCGGGCAC,-0.0505
17,CAGCAACA,0.0784
18,ATCCGCAA,0.025
19,AACGTAGA,-0.00253
20,CTCTTGCC,-0.0697
21,CAACTCCG,-0.0235
22,AGCTAAGC,-0.234
23,AACGGGTG,0.127
24,ACCCGCTG,-0.262
25,CCCCGGCG,-0.0535

row,Sequence,PBM E-score
1,CTCCGACC,0.0614
2,AACACTCC,0.0877
3,AAAGCTCC,-0.18
4,ACTAGATG,0.0624
5,CGGTGTCA,-0.0214
6,GAATGAAA,0.322
7,CTTATAAG,0.0485
8,AATTTGTC,0.134
9,ATGCTCTA,-0.0781
10,TATAAGAA,0.0401
11,CGGGTGAG,-0.051
12,TCCGACAA,-0.0026
13,CCTGCCAC,0.00798
14,CTTTTCGC,0.204
15,TCAAAACA,0.209
16,GATGGGAC,0.00042
17,GATGTAAC,0.0711
18,ATTCGTTG,0.0917
19,CATTCGAA,0.11
20,ATGGTCTG,0.0287
21,ATGCCGTC,-0.0726
22,GCTTAATA,0.166

# — the supplement of paper PMC3334620
